{"source": "PubChem BioAssay AID588795", "about": "(National Center for Advancing Translational Sciences (NCATS), 2011)", "note": "Several values for one entry are separate records, joined by “and”; a condition that tells them apart may be missing. Equal values may be shown once. In all, about 390,000 compounds went through this assay and about 1,400 (0.36%) were called active. Inconclusive means that the source gave no clear call. Such entries were picked first, then a sample of the others. Calls follow the shape of the dose curve; as a rule, active = well fitted inhibition curve with a large enough effect; inconclusive = small, poorly fitted or top-dose-only effect; inactive = no such curve, though single readings can be large or run the other way. Potencies of inconclusive entries are doubtful fits and often do not repeat. % is scaled to controls: 0 for no effect and ±100 for the full control effect; potency is read from the fitted curve at half-maximal effect; tags tell the direction and shape of the fitted curve.", "data": [{"biological_target": "Flap endonuclease 1 (Homo sapiens) (UniProt P39748)", "sequence (P39748 whole entry, looked up)": "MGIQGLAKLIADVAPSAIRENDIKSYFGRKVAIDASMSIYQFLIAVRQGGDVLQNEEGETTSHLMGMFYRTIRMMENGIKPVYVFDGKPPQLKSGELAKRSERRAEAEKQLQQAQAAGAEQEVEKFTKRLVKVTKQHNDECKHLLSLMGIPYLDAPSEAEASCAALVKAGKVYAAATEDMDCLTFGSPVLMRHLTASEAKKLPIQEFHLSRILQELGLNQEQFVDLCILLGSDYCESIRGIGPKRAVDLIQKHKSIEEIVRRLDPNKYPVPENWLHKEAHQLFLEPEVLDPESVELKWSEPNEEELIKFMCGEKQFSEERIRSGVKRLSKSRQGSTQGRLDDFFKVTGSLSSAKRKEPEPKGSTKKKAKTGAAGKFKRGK", "test": "qHTS Assay for the Inhibitors of Human Flap endonuclease 1 (FEN1); also: nearly all actives have a fitted effect of over 65% in size.", "settings": "Recombinant FEN1 flap cleavage, fluorescence, 15 min; series mostly up to 114 µM; activity change, negative = inhibition: at the top concentration", "how_it_was_run": "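Enzyme 10 nM, 15 min RT preincubation with compound; start with substrate 50 nM final; reads at 0 and 15 min; qHTS titration, four-parameter Hill fit.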", "values": [{"compound": "C=C[C@@H]1c2ccccc2N(S(=O)(=O)c2ccc(C)cc2)[C@H](c2ccc(C(F)(F)F)cc2)C1(C#N)C#N", "Potency": "inconclusive: 50.1 µM [inhibitor, partial curve, poor fit]"}, {"compound": "COc1ccc(Br)cc1/C=C/C(=O)NC(=S)Nc1ccc(Cl)c(C(=O)O)c1", "Potency": "inconclusive: 20 µM [inhibitor, full curve]"}, {"compound": "O=C1C=C(N(CCO)Cc2ccccc2)c2ccccc2C1=O", "activity change, negative = inhibition": "inactive: -18.5%"}, {"compound": "O=C(COC(=O)c1ccc(NS(=O)(=O)c2cccs2)cc1)NCc1ccco1", "Potency": "active: 44.7 µM"}, {"compound": "CC1(N2CCOCC2)CC2(O)C(=[N+]1[O-])CCc1c2no[n+]1[O-]", "note": "(stereo unspecified)", "Potency": "inconclusive: 56.2 µM [inhibitor, partial curve, poor fit]"}, {"compound": "Cc1ccc(NC(=O)Cc2ccc(Cl)cc2)cc1S(=O)(=O)N1CCCCCC1", "activity change, negative = inhibition": "inactive: -12.9%"}, {"compound": "CCC(=O)Nc1ccc2nc(C3CC3)n(Cc3ccccc3)c(=O)c2c1", "Potency": "inconclusive: 89.1 µM [inhibitor, partial curve, poor fit]"}, {"compound": "CC(C)c1cc(C(=O)N/N=C/C(Br)=C/c2ccccc2)n[nH]1", "Potency": "inconclusive: 5.01 µM [inhibitor, partial curve, poor fit]"}, {"compound": "Cc1cc2ccccc2n1-c1ccc(C(=O)N2CCCCC2)s1", "activity change, negative = inhibition": "inactive: -5.1%"}, {"compound": "O=C1NC(=S)S/C1=C\\c1cc(Cl)cc(Cl)c1O", "Potency": "inconclusive: 50.1 µM [inhibitor, partial curve]"}, {"compound": "O=C(C[N+]1(CCO)CCOCC1)c1ccc(F)c2ccccc12", "Potency": "inconclusive: 100 µM [inhibitor, single point]"}, {"compound": "O=C(Nc1ccccc1Cl)/C(Cl)=C(\\Cl)S(=O)c1ccccc1", "note": "(stereo unspecified)", "Potency": "inconclusive: 89.1 µM [inhibitor, partial curve, poor fit]"}, {"compound": "Nc1ncnc2c1ncn2[C@@H]1O[C@H](COP(=O)(O)OP(=O)(O)OP(=O)(O)OP(=O)(O)OC[C@@H]2O[C@H](n3cnc4c(N)ncnc43)[C@@H](O)[C@H]2O)[C@@H](O)[C@H]1O", "Potency": "inconclusive: 4.23 µM [inhibitor, single point]"}, {"compound": "Cc1ccc(/C=N/Nc2ncnc3nc[nH]c23)cc1", "Potency": "inconclusive: 39.8 µM [inhibitor, partial curve, poor fit]"}, {"compound": "O=C(O)c1cccc(NS(=O)(=O)c2ccc(-c3ccc(S(=O)(=O)Nc4cccc(C(=O)O)c4)cc3)cc2)c1", "Potency": "inconclusive: 31.6 µM [inhibitor, partial curve, poor fit]"}, {"compound": "CCCc1cc(=O)[nH]c2nnc(SCC(=O)Nc3nccs3)n12", "activity change, negative = inhibition": "inactive: 13.8%"}, {"compound": "CC(C)CC(NC(=O)c1ccccc1)C(=O)N/N=C/c1ccco1", "note": "(stereo unspecified)", "activity change, negative = inhibition": "inactive: -0.663%"}, {"compound": "CN(C)c1ccc2c(c1)C(=NO)c1ccccc1-2", "Potency": "inconclusive: 39.8 µM [inhibitor, partial curve, poor fit]"}, {"compound": "CCc1ccc(/C=C/C(=O)c2cc(Br)ccc(=O)c2O)cc1", "Potency": "inconclusive: 89.1 µM [inhibitor, partial curve, poor fit]"}, {"compound": "CCOc1ccc(C2c3cc(OCC)c(OCC)cc3CC(=O)N2c2ccc(C(=O)O)cc2)cc1OCC", "note": "(stereo unspecified)", "Potency": "inconclusive: 100 µM [inhibitor, partial curve, poor fit]"}, {"compound": "CC(C)(C)c1ccc(Oc2ccc(NC(=O)c3ccco3)cn2)cc1", "Potency": "inconclusive: 22.4 µM [inhibitor, partial curve, poor fit]"}, {"compound": "CCn1c2ccccc2c2cc(/C=N/NC(=O)c3ccncc3)ccc21", "Potency": "inconclusive: 79.4 µM [inhibitor, partial curve, poor fit]"}, {"compound": "CC1=NN(c2nc(-c3ccc(Cl)cc3)cs2)C(=O)C1", "Potency": "inconclusive: 79.4 µM [inhibitor, single point]"}, {"compound": "COc1ccc(O)c(/C=N/NC(=O)c2c(C)nnn2-c2nonc2N)c1", "Potency": "inconclusive: 79.4 µM [inhibitor, single point]"}, {"compound": "CCOc1ccc(C2=NC(c3cccs3)=Nc3ccc(C(C)C)cc3N2)cc1", "Potency": "inconclusive: 79.4 µM [inhibitor, partial curve, poor fit]"}, {"compound": "O=C(NCc1cccs1)c1nc2c(nnn2Cc2ccccc2Cl)c(=O)[nH]1", "Potency": "inconclusive: 50.1 µM [inhibitor, partial curve]"}, {"compound": "COc1ccc2cc3cc(C(=O)NCc4ccc5c(c4)OCO5)oc3nc2c1", "Potency": "inconclusive: 79.4 µM [inhibitor, partial curve, poor fit]"}, {"compound": "CC(C)COC(=O)c1cccc2c1-c1ccccc1/C2=N\\O", "Potency": "inconclusive: 89.1 µM [inhibitor, single point]"}, {"compound": "COc1cc(NC(=O)CSc2nc3nc(C)c(Cc4ccc(C)cc4)c(C)n3n2)cc(OC)c1", "Potency": "inconclusive: 89.1 µM [inhibitor, single point]"}, {"compound": "CCOC(=O)C1=C(CSc2nc3c(cc2C#N)CCC3)OC(N)=C(C#N)C1c1ccccc1", "note": "(stereo unspecified)", "Potency": "inconclusive: 39.8 µM [inhibitor, partial curve, poor fit]"}, {"compound": "COCCCn1c(=N)c(C(=O)NCc2ccc3c(c2)OCO3)cc2c(=O)n3ccccc3nc21", "Potency": "inconclusive: 89.1 µM [inhibitor, partial curve, poor fit]"}, {"compound": "COc1cc(/C=N/NC(=O)COc2ccc([N+](=O)[O-])cc2)ccc1OCC(=O)N1CCOCC1", "activity change, negative = inhibition": "inactive: 5.4%"}, {"compound": "COc1ccc(NC(=O)Cn2nnc(C(=O)NCCc3ccccc3)c2N)c(OC)c1", "Potency": "inconclusive: 89.1 µM [inhibitor, partial curve, poor fit]"}, {"compound": "O=c1c(=O)n(-c2cccc(Cl)c2)ccn1Cc1cccc(F)c1", "activity change, negative = inhibition": "inactive: -2.37%"}, {"compound": "O=C1[C@H]2CCC=C[C@H]2[C@H](c2cccc(Br)c2)N1Cc1ccccc1", "Potency": "inconclusive: 70.8 µM [inhibitor, partial curve, poor fit]"}, {"compound": "CCOc1ccc(C2Sc3ccccc3NC3=C2C(=O)OC3)cc1", "note": "(stereo unspecified)", "Potency": "inconclusive: 35.5 µM [inhibitor, partial curve, poor fit]"}, {"compound": "CCCCN(CCCC)CC(O)Cn1cc(/C=C/C(=O)c2ccccc2)c2ccccc21", "note": "(stereo unspecified)", "Potency": "inconclusive: 89.1 µM [inhibitor, partial curve, poor fit]"}, {"compound": "C=CCc1cccc2cc(C(=O)Nc3ccc(CC(=O)O)cc3)c(=O)oc12", "Potency": "inconclusive: 89.1 µM [inhibitor, partial curve, poor fit]"}, {"compound": "CN(C)c1ccc(/C=N/N(CCC(=O)NC(C)(C)C)C2=NS(=O)(=O)c3ccccc32)cc1", "Potency": "inconclusive: 28.2 µM [inhibitor, single point]"}, {"compound": "CCCCOC(=O)c1c(C)oc2ccc(NS(=O)(=O)c3ccc4c5c(cccc35)C(=O)N4)cc12", "Potency": "inconclusive: 35.5 µM [inhibitor, partial curve, poor fit]"}, {"compound": "Cc1cc(C)cc(NC2=CC(c3cccc(F)c3)N(c3cc(C)cc(C)c3)C2=O)c1", "note": "(stereo unspecified)", "activity change, negative = inhibition": "inactive: -0.594%"}, {"compound": "CCOc1cc(CNc2ccc(O)cc2)ccc1OCc1ccc(Cl)cc1", "Potency": "inconclusive: 20 µM [inhibitor, full curve]"}, {"compound": "CCOc1ccc(NC(=O)c2nc(S(=O)(=O)Cc3ccccc3)ncc2Cl)cc1", "Potency": "inconclusive: 79.4 µM [inhibitor, partial curve, poor fit]"}, {"compound": "CCCCN(CC)CCCNC(=O)c1cc2c(=O)n(C)c3ccccc3c2n1C", "Potency": "inconclusive: 11.2 µM [inhibitor, partial curve, poor fit]"}, {"compound": "CC(Cc1cccs1)NC(=O)NC1CCCCC1", "note": "(stereo unspecified)", "Potency": "inconclusive: 0.631 µM [inhibitor, full curve]"}, {"compound": "O=C(O)CN1C(=O)/C(=C\\c2cccc(OCc3ccc(Cl)cc3)c2)SC1=S", "activity change, negative = inhibition": "inactive: 6.01%"}, {"compound": "CCC1CCCCN1CCCNC(=O)c1cc2c(Cl)nc3ccccc3c2s1", "note": "(stereo unspecified)", "Potency": "inconclusive: 50.1 µM [inhibitor, partial curve, poor fit] and inconclusive: 56.2 µM [inhibitor, partial curve, poor fit]"}, {"compound": "O=C(CN1C(=O)CCc2cc(S(=O)(=O)N3CCOCC3)ccc21)NCc1ccc(F)cc1", "activity change, negative = inhibition": "inactive: -2.19%"}, {"compound": "C=C(C)COc1ccc(-c2n[nH]c(C)c2-c2ccc(Br)cc2)c(O)c1", "Potency": "inconclusive: 79.4 µM [inhibitor, partial curve, poor fit]"}, {"compound": "c1ccc(Cc2nnc3sc(-c4ccco4)nn23)cc1", "Potency": "inconclusive: 20 µM [inhibitor, partial curve, poor fit]"}, {"compound": "CCOC(=O)c1cnc2ccc(C)cc2c1Nc1ccc(OCc2ccccc2Cl)cc1", "Potency": "inconclusive: 89.1 µM [inhibitor, partial curve, poor fit]"}, {"compound": "CCOc1cc(/C=C2\\N=C(SC)SC2=O)cc([N+](=O)[O-])c1OC(C)=O", "Potency": "active: 50.1 µM"}, {"compound": "Cc1ccc(C)c(S(=O)(=O)c2cn(Cc3ccccc3)c3cc(F)c(F)cc3c2=O)c1", "activity change, negative = inhibition": "inactive: 11.2%"}, {"compound": "CC(C)(C)C1CCc2oc3ccc(NS(=O)(=O)c4cc(Cl)ccc4Cl)cc3c2C1", "note": "(stereo unspecified)", "Potency": "inconclusive: 39.8 µM [inhibitor, partial curve, poor fit]"}, {"compound": "O=C1CCCC2=C1C(c1ccc(O)c(O)c1)Nc1ccc3ccccc3c12", "note": "(stereo unspecified)", "activity change, negative = inhibition": "inactive: -7.85%"}, {"compound": "Oc1ccc(Nc2nc(N3CCCC3)c3ccccc3n2)cc1", "Potency": "active: 50.1 µM"}, {"compound": "COc1ccc(C(=O)N/N=C/c2ccc3cccc(O)c3n2)cc1", "Potency": "inconclusive: 89.1 µM [inhibitor, partial curve, poor fit]"}, {"compound": "Cc1ccc(-n2nc(-c3cccnc3)cc2C(=O)N2CCOCC2)c(C)c1", "activity change, negative = inhibition": "inactive: -11.1%"}, {"compound": "Cc1ccc(NC(=O)c2cc(S(=O)(=O)N3CCCCC3)ccc2N2CCOCC2)cc1S(=O)(=O)N(C)C", "activity change, negative = inhibition": "inactive: -6.75%"}, {"compound": "Cc1[nH]c2ccccc2c1/C=C/c1cc[n+](C)cc1", "Potency": "inconclusive: 50.1 µM [inhibitor, partial curve]"}, {"compound": "Cc1cccc(NC(=O)CSc2n[nH]c(-c3cccnc3)n2)c1", "Potency": "inconclusive: 89.1 µM [inhibitor, single point]"}]}]}
